{
  "source": "paper PMC6919601",
  "about": "“Identification of Plasmodium dipeptidyl aminopeptidase allosteric inhibitors by high throughput screening” (PLoS ONE, 2019)",
  "note": "Screen size: about 110,000 compounds; about 230 (0.21%) showed an effect of 50% or more. This is one part of the list.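 Note: 30 min substrate incubation versus DMSO and 10 µM JCP410 controls.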",
  "data": [
    {"biological_target": "DPAP1 (Plasmodium falciparum, UniProt Q8IIJ9)", "sequence (Q8IIJ9 whole entry, looked up)": "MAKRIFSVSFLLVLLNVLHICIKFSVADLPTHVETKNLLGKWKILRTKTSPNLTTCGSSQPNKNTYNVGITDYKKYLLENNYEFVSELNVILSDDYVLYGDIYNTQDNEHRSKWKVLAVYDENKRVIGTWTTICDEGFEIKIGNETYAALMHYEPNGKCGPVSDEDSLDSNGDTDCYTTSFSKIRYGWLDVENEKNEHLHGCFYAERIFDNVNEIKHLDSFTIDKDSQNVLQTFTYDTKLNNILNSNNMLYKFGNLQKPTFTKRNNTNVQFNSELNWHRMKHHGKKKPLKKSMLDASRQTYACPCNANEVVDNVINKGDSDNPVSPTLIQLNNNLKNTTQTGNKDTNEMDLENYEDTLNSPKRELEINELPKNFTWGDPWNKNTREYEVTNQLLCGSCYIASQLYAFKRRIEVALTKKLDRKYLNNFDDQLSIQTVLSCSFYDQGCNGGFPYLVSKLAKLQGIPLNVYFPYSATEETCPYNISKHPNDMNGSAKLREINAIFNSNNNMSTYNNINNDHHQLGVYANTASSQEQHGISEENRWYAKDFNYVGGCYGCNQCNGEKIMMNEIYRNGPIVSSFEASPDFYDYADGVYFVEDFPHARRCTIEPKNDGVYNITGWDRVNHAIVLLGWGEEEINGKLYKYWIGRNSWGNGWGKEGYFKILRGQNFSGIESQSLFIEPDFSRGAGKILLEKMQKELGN", "assay": "primary screen, percent inhibition; read by cleavage of a fluorogenic dipeptide substrate; higher = more effect of the substance", "set-up": "species or system P. falciparum D10 trophozoite lysates; single well", "units": {"% Inhibition @ 10 uM": "%"}, "values": [
      {"smiles": "CCOc1ccccc1C(=O)Nc1ccc(C)cc1C", "% Inhibition @ 10 uM": 0.0504},
      {"smiles": "Cc1cc(NC(=O)c2ccc(COc3ccccc3Cl)o2)no1", "% Inhibition @ 10 uM": -0.553},
      {"smiles": "COc1ccc(-c2cc(C)no2)cc1S(=O)(=O)NCCN1CCc2ccccc2C1", "% Inhibition @ 10 uM": -1.41},
      {"smiles": "CSc1ncc(Cl)c(C(=O)N2CCN(Cc3ccccc3)CC2)n1", "% Inhibition @ 10 uM": -2.85},
      {"smiles": "COc1ccc(C(=O)N/C(=C\\c2ccc3c(c2)OCO3)C(=O)Nc2ccc(C(=O)O)cc2)cc1", "% Inhibition @ 10 uM": -4.76},
      {"smiles": "O=C(C(Cc1ccc([N+](=O)[O-])cc1)N1C(=O)c2ccccc2C1=O)N1CCOCC1", "note": "(stereo not shown)", "% Inhibition @ 10 uM": -2.19},
      {"smiles": "COc1cc(C2SCC(=O)N2CCc2ccccc2)cc(OC)c1OC", "note": "(stereo not shown)", "% Inhibition @ 10 uM": 5.98},
      {"smiles": "CCOC(=O)N1CCN(CC(O)COC2CC(C)CCC2C(C)C)CC1", "note": "(stereo not shown)", "% Inhibition @ 10 uM": 12.7},
      {"smiles": "COc1ccccc1CNC(=O)CS(=O)Cc1nc(-c2cccc(C)c2)oc1C", "note": "(stereo not shown)", "% Inhibition @ 10 uM": -2.85},
      {"smiles": "Cc1cccc(C(=O)Nc2sc3c(c2C(=O)N2CCCC2)CCCC3)c1", "% Inhibition @ 10 uM": 5.03},
      {"smiles": "O=C(NCCN1CCCC1)C1CCN(S(=O)(=O)N2CCC3(CC2)OCCO3)CC1", "% Inhibition @ 10 uM": -4.83},
      {"smiles": "COCCN(C(=O)c1nn(C)c2c1CSc1ccccc1-2)C1CCN(C(C)=O)CC1", "% Inhibition @ 10 uM": -1.72},
      {"smiles": "O=C(NCc1ccco1)c1cc2c(s1)-c1ccc(Cl)cc1S(=O)(=O)C2", "% Inhibition @ 10 uM": 0.953},
      {"smiles": "COc1ccc(CCNC(=O)c2cccc3ccccc23)cc1OC", "% Inhibition @ 10 uM": -3.47},
      {"smiles": "CCOC(=O)c1[nH]c2ccc(C(C)=O)cc2c1-c1ccc(N)cc1", "% Inhibition @ 10 uM": -1.45},
      {"smiles": "Cc1nn(CC(=O)NCCCN2CCc3ccccc3C2)c(=O)c2cc3sccc3n12", "% Inhibition @ 10 uM": 4.95},
      {"smiles": "CCN(CC)C(=O)C1CCCN(C2CCN(CCc3ccccc3)CC2)C1", "note": "(stereo not shown)", "% Inhibition @ 10 uM": -1.5},
      {"smiles": "CCN(CC)CCCOc1c(C)cc(Cl)cc1Cl", "% Inhibition @ 10 uM": 5.31},
      {"smiles": "CC1(C)CC(=O)c2cnc(NC(=O)C3CC3)nc2C1", "% Inhibition @ 10 uM": 3.48},
      {"smiles": "Cc1noc2ncnc(N3CCCC(C(=O)NCCCOC(C)C)C3)c12", "note": "(stereo not shown)", "% Inhibition @ 10 uM": 1.84},
      {"smiles": "Cc1cc(C)n(C(C)CC(=O)NCc2ccco2)n1", "note": "(stereo not shown)", "% Inhibition @ 10 uM": 1.26},
      {"smiles": "Cc1ccc(-n2c(S)nnc2-c2ccccc2O)c(C)c1", "% Inhibition @ 10 uM": 4.94},
      {"smiles": "COc1ccc(CCNC(=O)C(=O)NCc2ccc(Cl)cc2)cc1OC", "% Inhibition @ 10 uM": -3.35},
      {"smiles": "CCOc1nc(-c2ccccc2)ccc1-c1noc(-c2ccncc2)n1", "% Inhibition @ 10 uM": 1.89},
      {"smiles": "CC(=O)Nc1ccc(NC(=O)c2ccc(Cn3cc(Cl)cn3)cc2)cc1", "% Inhibition @ 10 uM": -2.8},
      {"smiles": "O=C(c1ccccc1)c1nc2ccccc2[nH]1", "% Inhibition @ 10 uM": 2.97},
      {"smiles": "CCCN1CCN(C(=O)c2ccc3c(c2)sc2nc(-c4ccc(F)cc4)cn23)CC1", "% Inhibition @ 10 uM": 15.9},
      {"smiles": "CCCCNC(=O)Cn1nc(-c2ccc(Cl)cc2)ccc1=O", "% Inhibition @ 10 uM": -1.79}
    ]}
  ]
}
